Measured values taken from PubChem BioAssay AID1345083 (National Center for Advancing Translational Sciences (NCATS), 2018).
The campaign covered roughly 94,000 compounds. About 6,200 (6.6%) were called active. The inconclusive results got no clear call from the source; some entries with a clear call stand among them for comparison. The call rests on the fitted dose curve; in most records, active means well fitted inhibition curve with a large enough effect; inconclusive means small, poorly fitted or top-dose-only effect; inactive means flat fitted curve, though single readings scatter. A potency beside an inconclusive call is a rough fit, not a confirmed value.

assay: Cytotoxic Profiling in HEK 293 Cell Line of Diverse Libraries Using Quantitative High-Throughput Screening; conditions: HEK 293 viability, ATP luminescence (CellTiter-Glo), 48-72 h; activity change, negative = cytotoxicity: at 115 µM (top of the series) unless noted; series mostly up to 115 µM; further: nearly all actives have a fitted effect of over 60% in size
How it was run: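 Read-out: CellTiter-Glo ATP luminescence. Cells: HEK 293, 250 cells/well. Exposure: 48 or 72 hr, 37 degree Celsius.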
On the % scale 0 is the no-effect control and ±100 the full control effect; potency means the concentration at half of the fitted maximal effect; tags describe the fitted curve by direction and shape.

For `Cc1nc(N2CCC(NC(=O)c3cccs3)CC2)cc(C(F)(F)F)n1`, which Potency is on record?
The Potency was inconclusive: 56.2 µM [inhibitor, partial curve, poor fit].

For `N#Cc1cccc(C(=O)N2CCN3CCS(=O)(=O)N(C4CC4)C(=O)C3C2)c1` (stereo not drawn), which “outcome” value is on record?
The value was “inactive”.

For `COc1cc(CNCc2ccccc2C)ccc1OCC(O)CN1CCOCC1` (stereo not drawn), which “activity change, negative = cytotoxicity” value is on record?
Its value is inactive: -18%.

With `Cn1ncc2c(C(=O)NCc3ccc4c(c3)OCO4)cc(-c3ccccc3C(F)(F)F)nc21` as the compound, how does the Potency read?
Its Potency is active: 35.5 µM.

With `O=C(NC1CCCCCC1)c1ccc2nc(-c3cccnc3Cl)oc2c1` as the compound, how does the “outcome” value read?
Its value is “inactive [at 172 µM]”.

For `CC1(C)NC(=O)N(CCC(=O)N2CCCCC2c2noc(COCc3ccc(F)cc3)n2)C1=O` (stereo not drawn), which “activity change, negative = cytotoxicity” value is on record?
The value was inactive: -21.1%.

For `O=C(NCC1CC1)c1cc(Br)cn2ccnc12`, which Potency is on record?
The Potency was inconclusive: 79.4 µM [inhibitor, partial curve, poor fit].

For `Cc1noc(C)c1-c1cc2cc(CO)oc2c(-c2ccccc2)n1`, which Potency is on record?
Its Potency is inconclusive: 100 µM [inhibitor, partial curve].

Which Potency does the source give for `CN(C(=O)c1ccc(F)cc1)C1CCc2ccccc21` (stereo not drawn) here?
The Potency was inconclusive: 112 µM [inhibitor, partial curve, poor fit].

Which Potency does the source give for `CCOc1cc(=O)n2c(c1C(=O)Nc1cc(F)cc(F)c1)CCCC2` here?
The Potency was inconclusive: 79.4 µM [inhibitor, partial curve, poor fit].

For `O=C(NCc1ccccc1)C1=NO[C@@H]2CN(Cc3ccc(O)c(Cl)c3)C[C@H]12`, which Potency is on record?
Its Potency is active: 70.8 µM.

With `O=C(CCC1CCCC1)N1CCC2(CC1)CC(N(C(=O)c1ccccc1)C1CC1)CCO2` (stereo not drawn) as the compound, how does the Potency read?
The Potency was inconclusive: 50.1 µM [inhibitor, partial curve, poor fit].

With `Cc1cc(C)cc(N2CCC(NC(=O)c3cc(C)ccc3C)C2=O)c1` (stereo not drawn) as the compound, how does the Potency read?
The Potency was inconclusive: 79.4 µM [inhibitor, partial curve, poor fit].

Which Potency does the source give for `Cc1noc2c(-c3cccnc3NCCN3CCOCC3)cc(-c3ccccc3)nc12` here?
Its Potency is inconclusive: 100 µM [inhibitor, partial curve].

Which “outcome” value does the source give for `CN1CC(=O)N(c2ccc(Cl)cc2)Cc2c(NC3CCNCC3)ncnc21` here?
The value was “inactive”.

For `COC(=O)CNC(=O)C1CCCN(Cc2cccc(-c3ccccc3OC)c2)C1` (stereo not drawn), which “activity change, negative = cytotoxicity” value is on record?
The value was inactive: -25.6%.

Which Potency does the source give for `Cc1ncsc1CN1CCC2(CC1)CN(Cc1ccccc1)CC2CO` (stereo not drawn) here?
Its Potency is inconclusive: 89.1 µM [inhibitor, partial curve, poor fit].

With `O=C1Nc2ccc(-c3ccccc3)cc2C(=O)N2C[C@H](O)C[C@@H]12` as the compound, how does the “activity change, negative = cytotoxicity” value read?
Its value is inactive: -41.1% [at 172 µM].

For `CCCn1cc(-c2ccncc2)cc1C(=O)N1CCCCC1`, which Potency is on record?
The Potency was inconclusive: 100 µM [inhibitor, single point].

For `Cc1cc(OC2CN(Cc3ccc(C(F)(F)F)cc3)C2)ccc1F`, which Potency is on record?
Its Potency is inconclusive: 63.1 µM [inhibitor, partial curve, poor fit].

With `O=C(NCc1cccc(F)c1)C1CN(c2ccccc2)C(=O)N1` (stereo not drawn) as the compound, how does the “activity change, negative = cytotoxicity” value read?
The value was inactive: 4.55% [at 172 µM].

With `Cc1noc(C)c1-c1cc(-c2ccc([S+](C)(=O)[O-])cc2)cn2cncc12` as the compound, how does the Potency read?
Its Potency is inconclusive: 89.1 µM [inhibitor, partial curve].

For `COc1ccc(Nc2ccnc(N3CCC(NC(=O)NC4CCCC4)CC3)n2)cc1`, which Potency is on record?
Its Potency is inconclusive: 50.1 µM [inhibitor, partial curve, poor fit].

Which “activity change, negative = cytotoxicity” value does the source give for `CCCCCC(=O)N1C[C@@H](C(=O)OCC)[C@@H]2Oc3c(C)cccc3[C@@H]21` here?
Its value is inactive: -30.5%.

With `COc1ncccc1N1CC2(COCC(=O)N(Cc3cccc(OC(F)(F)F)c3)C2)C1` as the compound, how does the Potency read?
The Potency was inconclusive: 100 µM [inhibitor, partial curve].

With `CCCNC(=O)C1(CCO)CCN(c2ncccn2)C1` (stereo not drawn) as the compound, how does the “activity change, negative = cytotoxicity” value read?
Its value is inactive: -3.57%.

Which Potency does the source give for `CC(=O)N1CCCN(C(=O)c2cc(-c3cc(Cl)cc(Cl)c3)nc3c2cnn3C)CC1` here?
The Potency was active: 79.4 µM.

For `Cc1ccsc1C(=O)N1CCC(n2nccc2NC(=O)c2cccc(F)c2)CC1`, which “activity change, negative = cytotoxicity” value is on record?
The value was inactive: -15.1%.

For `O=C(c1ccccc1Cl)N1CCN(c2ccc3nnc(-c4ccccc4)n3n2)CC1`, which “activity change, negative = cytotoxicity” value is on record?
The value was inactive: -21.3%.

With `CCN1C[C@H]2CN(C)c3ccccc3[C@@H]2N(C(=O)OCC(C)C)CCC1=O` as the compound, how does the Potency read?
The Potency was inconclusive: 35.5 µM [inhibitor, single point].

For `CCOC(=O)[C@H]1C[C@]2(CCCCN(CCOC)C2=O)N(C(=O)Cc2ccc(F)cc2)[C@H]1c1ccco1`, which Potency is on record?
Its Potency is inconclusive: 79.4 µM [inhibitor, single point].

Which Potency does the source give for `Cc1ccc(C(=O)N2CCC[C@H]2c2nc(-c3ccccc3)no2)c(C)c1` here?
The Potency was inconclusive: 79.4 µM [inhibitor, partial curve].

Which “activity change, negative = cytotoxicity” value does the source give for `CNC(=O)[C@@H]1CN(C(=O)NCc2ccco2)C[C@H]1c1nc(C)no1` here?
The value was inactive: -1.92%.

For `COc1cccc(C(=O)NC2CCN(c3ccnc4ccnn34)CC2)c1`, which Potency is on record?
The Potency was active: 35.5 µM.

With `CN1C(=O)CCC2(CNC(=O)c3ccncc3)CCC=C12` (stereo not drawn) as the compound, how does the Potency read?
The Potency was inconclusive: 22.4 µM [inhibitor, partial curve, poor fit].

Which Potency does the source give for `CC1=C[C@@H](CN2C(=O)c3ccccc3C2=O)[C@H](C(C)C)C[C@H]1Cc1nc2ccccc2[nH]1` here?
Its Potency is active: 31.6 µM.

Which “activity change, negative = cytotoxicity” value does the source give for `O=S(=O)(c1cccc(C(F)(F)F)c1)N1CCN(c2ccc3nnc(-c4ccccc4)n3n2)CC1` here?
Its value is inactive: -11.4%.

For `O=C(N[C@@H]1CCC[C@@H]1C(=O)N1CCN(c2ccccn2)CC1)c1ccncc1`, which “outcome” value is on record?
The value was “inactive”.

With `CC(C)NC(=O)C1CCN(C(=O)c2ccc(-c3cncnc3)cc2)CC1` as the compound, how does the “activity change, negative = cytotoxicity” value read?
The value was inactive: -0.274% [at 172 µM].

Which Potency does the source give for `O=C(c1ccc(Oc2ccccc2)cc1)N1CCNc2cnc(Nc3cccnc3)nc2C1` here?
The Potency was inconclusive: 50.1 µM [inhibitor, partial curve, poor fit].

For `CCNC(=O)OC1CCN(C(=O)Nc2ccccc2)CC(=O)N(C)c2ccccc21` (stereo not drawn), which Potency is on record?
Its Potency is inconclusive: 39.8 µM [inhibitor, full curve].

For `CC(=O)NC1(C)CCN(Cc2ccc(Nc3ccccc3)cc2)C1` (stereo not drawn), which Potency is on record?
Its Potency is inconclusive: 112 µM [inhibitor, partial curve, poor fit].

With `O=C(c1ccc(F)cc1)N1CCC(C(=O)N2CCC(N3CCCC3=O)CC2)CC1` as the compound, how does the “activity change, negative = cytotoxicity” value read?
Its value is inactive: -6.14%.

For `COc1ccc(C(=O)Nc2ccc([C@@H](O)[C@H]3COCC(=O)N3Cc3ccccc3F)cc2)cc1`, which Potency is on record?
The Potency was inconclusive: 50.1 µM [inhibitor, partial curve, poor fit].

Which “activity change, negative = cytotoxicity” value does the source give for `CNC(=O)c1cc(C2CC2)nc2c1c(C1CCN(C(=O)c3ccccc3F)C1)nn2C` (stereo not drawn) here?
The value was inactive: -24.6%.

For `CCn1ccc(C(=O)N2CC(Oc3ccc(-c4nc(C)no4)cc3)C2)n1`, which Potency is on record?
Its Potency is inconclusive: 31.6 µM [inhibitor, partial curve].

With `O=C(C1CCCN(c2nc3ncccc3o2)C1)N1CCN(Cc2ccccc2)CC1` (stereo not drawn) as the compound, how does the Potency read?
The Potency was inconclusive: 70.8 µM [inhibitor, partial curve, poor fit].

For `CCCn1cc2c3c(cccc31)CN(C(=O)c1ccc(OC)cc1)CC2`, which Potency is on record?
The Potency was inconclusive: 39.8 µM [inhibitor, partial curve, poor fit].

With `O=c1[nH]c(C2CCCN(Cc3ccc(F)cc3)C2)nn1-c1ccc(Cl)cc1` (stereo not drawn) as the compound, how does the Potency read?
The Potency was active: 44.7 µM.

With `CCn1c(C2CCN(S(=O)(=O)c3ccc(OC)cc3)CC2)nn(C)c1=O` as the compound, how does the “activity change, negative = cytotoxicity” value read?
Its value is inactive: -7.19%.

For `CCc1[nH]c2c(CNC(=O)c3n[nH]c4c3CCC4)cc(C)cc2c1C`, which Potency is on record?
Its Potency is active: 35.5 µM.

With `CC(=O)N[C@H]1C[C@@H](Cc2cc(CN(C)c3ccccc3)on2)C1(C)C` as the compound, how does the Potency read?
The Potency was active: 79.4 µM.

With `CN1CCC(N[C@H]2[C@H](O)[C@H](O)C[C@@H]2c2ccc(N3CCOCC3)nc2)CC1` as the compound, how does the “activity change, negative = cytotoxicity” value read?
The value was inactive: -1.19% [at 172 µM].

With `COCCN1CCCCCC(O)c2cc(C(=O)N(C)Cc3ccc(N4CCCCC4)cc3)ccc21` (stereo not drawn) as the compound, how does the Potency read?
Its Potency is inconclusive: 50.1 µM [inhibitor, partial curve, poor fit].

With `O=C1NCCCCCN(C(=O)CC2CCCCC2)[C@@H]2C[C@@H](C(=O)N3CCc4ccccc4C3)C[C@H]12` as the compound, how does the Potency read?
Its Potency is inconclusive: 56.2 µM [inhibitor, partial curve, poor fit].

For `CSc1ccc(-c2cccc(C(=O)NCCNC(=O)c3ccc(Cl)cc3)c2)cc1`, which “activity change, negative = cytotoxicity” value is on record?
Its value is inactive: -26.6%.

Which Potency does the source give for `COCCn1cc2c3c(cccc31)CN(C(=O)COc1cccc(C)c1)CC2` here?
The Potency was inconclusive: 56.2 µM [inhibitor, partial curve, poor fit].

Which Potency does the source give for `Cc1cc(F)ccc1OCC(=O)c1ccc2c(c1)N(C(C)C(=O)N1CCCCC1)C(=O)CO2` (stereo not drawn) here?
Its Potency is active: 50.1 µM.

With `Cc1ccc(C(=O)NC2CCCN(c3ccc4nnc(-c5ccccc5)n4n3)C2)cc1` (stereo not drawn) as the compound, how does the Potency read?
Its Potency is inconclusive: 35.5 µM [inhibitor, partial curve, poor fit].

Which “activity change, negative = cytotoxicity” value does the source give for `O=C(COc1ccccc1)N1CCOC[C@H](Oc2ccccc2)C1` here?
The value was inactive: -4.31% [at 172 µM].

With `COc1ccc([S+](=O)([O-])N2CCCN(c3ccc4nnc(C)n4n3)CC2)cc1` as the compound, how does the Potency read?
The Potency was inconclusive: 89.1 µM [inhibitor, single point].

With `Cc1csc(NC(=O)c2nc3c(o2)CCN(CCCc2ccccc2)CC3)n1` as the compound, how does the Potency read?
Its Potency is inconclusive: 100 µM [inhibitor, partial curve, poor fit].

For `COC(=O)CCNC(=O)C1c2ccccc2C(=O)N(c2ccccc2)C12CCCCC2` (stereo not drawn), which “activity change, negative = cytotoxicity” value is on record?
The value was inactive: 0.943%.

For `CC(C)NC(=O)c1coc(COc2ccc3c(c2)C(c2cccc(F)c2)N(C(=O)C2CC2)CC3)n1` (stereo not drawn), which Potency is on record?
Its Potency is inconclusive: 11.2 µM [inhibitor, full curve, poor fit].

For `COc1cccc(-c2cc(C3CCN(C(=O)Nc4ccccc4C)CC3)[nH]n2)c1`, which Potency is on record?
The Potency was inconclusive: 56.2 µM [inhibitor, partial curve, poor fit].

With `O=C(C1CCOCC1)N1CCC(Oc2ccccc2-c2nc(-c3ccccc3)no2)C1` (stereo not drawn) as the compound, how does the Potency read?
The Potency was active: 31.6 µM.

For `CCCCCNc1ncnc2c1CN(c1cccnc1)C(=O)CN2C`, which “activity change, negative = cytotoxicity” value is on record?
Its value is inactive: 4.54%.

Which Potency does the source give for `O=C(C1CCCO1)N1CCCC(c2ccccc2)(c2ccccc2)C1` (stereo not drawn) here?
The Potency was inconclusive: 44.7 µM [inhibitor, partial curve, poor fit].
